These are yes or no findings as the source states them, for the method shown. For some of these results: Binding seen in cells or lysates may run through a third protein. Some results given as binding are weak or reduced against the parent protein; the word gives no strength.

Assay [1] addresses T1, nascent Pgk1-100 (100 residues) (S. cerevisiae) (UniProt P00560).
T1 sequence (chain, [35S]-methionine labelled): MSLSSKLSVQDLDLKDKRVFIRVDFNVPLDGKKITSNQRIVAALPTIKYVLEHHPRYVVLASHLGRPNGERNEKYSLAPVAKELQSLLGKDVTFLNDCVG
As to the kind of experiment: cross-linking; as a1, RNCs generated in Ssb1-ΔC23 translation extract.

Assay [2] deals with T1, nascent Pgk1-100 (100 residues) (S. cerevisiae). As to the kind of experiment: cross-linking; as a1, RNCs generated in Δssb1Δssb2 translation extract (Ssb absent).
Assay [3] has as its target T2, nascent Pgk1-50 (50 residues) (S. cerevisiae) (UniProt P00560).
T2 sequence (chain, [35S]-methionine labelled): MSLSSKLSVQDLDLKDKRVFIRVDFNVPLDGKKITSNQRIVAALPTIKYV
Described as above.

Assay [4] concerns the target T3, nascent Pgk1 of 150 residues (S. cerevisiae) (UniProt P00560).
T3 sequence (chain, [35S]-methionine labelled): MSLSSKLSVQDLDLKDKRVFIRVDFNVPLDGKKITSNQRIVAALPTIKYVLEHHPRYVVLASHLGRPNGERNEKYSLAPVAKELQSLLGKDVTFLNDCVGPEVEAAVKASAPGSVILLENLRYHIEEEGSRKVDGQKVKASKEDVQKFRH
Described as above.

Assay [5] has as its target T1, nascent Pgk1-100 (100 residues) (S. cerevisiae). Put plainly: cross-linking; as a4, ribosome-free extract from Δssz1 (Ssb, Zuo1) added.
In assay [6] the target is T4, nascent Pgk1-45 (45 residues) (S. cerevisiae) (UniProt P00560).
T4 sequence (chain, [35S]-methionine labelled): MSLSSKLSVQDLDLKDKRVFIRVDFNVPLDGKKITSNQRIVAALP
As to the kind of experiment: cross-linking; RNCs with [35S]-labelled nascent chains generated in wild type yeast translation extract, isolated by centrifugation; 400 µM BS3, 20 min on ice; denaturing immunoprecipitation with antibodies against Ssb, Zuo1 or Ssz1; autoradiography.

The target in assay [7] is T5, nascent Pgk1-40 (40 residues) (S. cerevisiae) (UniProt P00560).
T5 sequence (chain, [35S]-methionine labelled): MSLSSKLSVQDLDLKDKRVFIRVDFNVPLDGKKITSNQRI
The assay is described as above.

Assay [8] deals with T1, nascent Pgk1-100 (100 residues) (S. cerevisiae). Put plainly: condition: only with Ssb present (wild type translation extract); cross-linking; RNCs with [35S]-labelled nascent chains generated in wild type yeast translation extract, isolated by centrifugation; 400 µM BS3, 20 min on ice; denaturing immunoprecipitation with antibodies against Ssb, Zuo1 or Ssz1; autoradiography.

In assay [9] the target is T2, nascent Pgk1-50 (50 residues) (S. cerevisiae). Described as above.
Assay [10] addresses T3, nascent Pgk1 of 150 residues (S. cerevisiae). Described as above.
Assay [11] has as its target T1, nascent Pgk1-100 (100 residues) (S. cerevisiae). As to the kind of experiment: cross-linking; RNCs from Δssb1Δssb2Δzuo1Δssz1 translation extract; ribosome-free extract from Δssb1Δssb2 (Zuo1, Ssz1) added before cross-linking.
Assay [12] has as its target T6, ScSsz1, recombinant (S. cerevisiae) (UniProt P38788).
T6 sequence: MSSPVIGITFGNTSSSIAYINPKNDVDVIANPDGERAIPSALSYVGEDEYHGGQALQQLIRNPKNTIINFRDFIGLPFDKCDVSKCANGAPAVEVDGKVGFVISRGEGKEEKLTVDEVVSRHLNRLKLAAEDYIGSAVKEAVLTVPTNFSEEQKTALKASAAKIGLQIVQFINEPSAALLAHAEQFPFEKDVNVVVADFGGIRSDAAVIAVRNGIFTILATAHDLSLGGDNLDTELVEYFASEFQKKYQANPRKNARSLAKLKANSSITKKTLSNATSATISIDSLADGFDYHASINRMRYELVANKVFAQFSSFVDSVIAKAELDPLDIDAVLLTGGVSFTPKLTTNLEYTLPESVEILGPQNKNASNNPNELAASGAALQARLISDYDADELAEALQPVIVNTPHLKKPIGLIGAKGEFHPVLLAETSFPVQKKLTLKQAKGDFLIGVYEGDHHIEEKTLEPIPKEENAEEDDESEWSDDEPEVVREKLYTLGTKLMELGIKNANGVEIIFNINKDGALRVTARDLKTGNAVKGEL
As to the kind of experiment: co-expression and co-purification; His6-MBP-3C-ScZuo1N construct coexpressed with His6-SUMO-ScSsz1 or ScSsz1mut; ResourceQ and size-exclusion chromatography in 20 mM Hepes/KOH pH 7.5, 120 mM KOAc, 5 mM Mg(OAc)2, 1 mM DTT. On the technique in general: SEC sorts molecules by how far they enter the pores of the column.

The target of assay [13] is T7, NR-peptide (NRLLLTG) labelled at the N terminus with fluorescein.
T7 sequence (peptide, fluorescein at the N terminus): NRLLLTG
Put plainly: fluorescence polarisation; fluorescence anisotropy; two-fold serial dilutions of the protein complex mixed 1:1 with 40 nM fluorescein peptide; 20 mM Hepes/KOH pH 7.5, 200 mM KCl, 5 mM MgCl2, 1 mM DTT, 1 µM BSA; room temperature, 30 min; one-site binding fit; affinity called estimated; both purified.

Assay [14] concerns the target T8, ScSsz1mut (ScSsz1 L439S/K440P/I448F/G495K), recombinant (S. cerevisiae) (UniProt P38788).
T8 sequence: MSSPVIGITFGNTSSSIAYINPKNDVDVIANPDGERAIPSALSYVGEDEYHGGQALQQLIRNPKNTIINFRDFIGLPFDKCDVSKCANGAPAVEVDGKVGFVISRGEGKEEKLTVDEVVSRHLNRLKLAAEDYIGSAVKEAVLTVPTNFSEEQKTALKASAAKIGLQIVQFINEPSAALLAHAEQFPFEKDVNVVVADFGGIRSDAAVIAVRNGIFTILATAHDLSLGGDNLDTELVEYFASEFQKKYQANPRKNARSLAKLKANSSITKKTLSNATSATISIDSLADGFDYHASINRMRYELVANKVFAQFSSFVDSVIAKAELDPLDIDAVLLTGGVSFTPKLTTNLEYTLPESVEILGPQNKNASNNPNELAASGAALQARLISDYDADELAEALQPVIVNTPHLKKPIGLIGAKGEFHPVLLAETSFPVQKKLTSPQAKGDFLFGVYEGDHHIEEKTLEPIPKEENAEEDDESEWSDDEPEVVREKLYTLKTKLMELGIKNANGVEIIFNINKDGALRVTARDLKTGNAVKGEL
As to the kind of experiment: co-expression and co-purification; His6-MBP-3C-ScZuo1N construct coexpressed with His6-SUMO-ScSsz1 or ScSsz1mut; ResourceQ and size-exclusion chromatography in 20 mM Hepes/KOH pH 7.5, 120 mM KOAc, 5 mM Mg(OAc)2, 1 mM DTT.

B1: Zuo1 (J-domain protein, Hsp40 subunit of RAC) (protein, UniProt P32527 1-433)
chain: MFSLPTLTSDITVEVNSSATKTPFVRRPVEPVGKFFLQHAQRTLRNHTWSEFERIEAEKNVKTVDESNVDPDELLFDTELADEDLLTHDARDWKTADLYAAMGLSKLRFRATESQIIKAHRKQVVKYHPDKQSAAGGSLDQDGFFKIIQKAFETLTDSNKRAQYDSCDFVADVPPPKKGTDYDFYEAWGPVFEAEARFSKKTPIPSLGNKDSSKKEVEQFYAFWHRFDSWRTFEFLDEDVPDDSSNRDHKRYIERKNKAARDKKKTADNARLVKLVERAVSEDPRIKMFKEEEKKEKERRKWEREAGARAEAEAKAKAEAEAKAKAESEAKANASAKADKKKAKEAAKAAKKKNKRAIRNSAKEADYFGDADKATTIDEQVGLIVDSLNDEELVSTADKIKANAAGAKEVLKESAKTIVDSGKLPSSLLSYFV
As to B1, the binding entry in assay [1], in assay [2], in [3], in [4], in assay [5] and in assay [6] was “binds” in each case. For the same molecule, the binding entry in assay [7] was “binds”; in [8], “no binding”; in [9], “no binding”; in assay [10], “no binding”; in assay [11] it was “binds”.
For MFSLPTLTSDITVEVNSSATKTPFVRRPVEPVGKFFLQHAQRTLRNHTWS (domain or fragment, UniProt P32527 1-50) [ScZuo1N (residues 1-50 of ScZuo1)], the binding entry in [12] is reported as “binds”.

B2: ScSsz1-Zuo1N complex (ScSsz1 with ScZuo1N residues 1-50) (complex, UniProt P38788 1-538; P32527 1-50)
chain 1: MSSPVIGITFGNTSSSIAYINPKNDVDVIANPDGERAIPSALSYVGEDEYHGGQALQQLIRNPKNTIINFRDFIGLPFDKCDVSKCANGAPAVEVDGKVGFVISRGEGKEEKLTVDEVVSRHLNRLKLAAEDYIGSAVKEAVLTVPTNFSEEQKTALKASAAKIGLQIVQFINEPSAALLAHAEQFPFEKDVNVVVADFGGIRSDAAVIAVRNGIFTILATAHDLSLGGDNLDTELVEYFASEFQKKYQANPRKNARSLAKLKANSSITKKTLSNATSATISIDSLADGFDYHASINRMRYELVANKVFAQFSSFVDSVIAKAELDPLDIDAVLLTGGVSFTPKLTTNLEYTLPESVEILGPQNKNASNNPNELAASGAALQARLISDYDADELAEALQPVIVNTPHLKKPIGLIGAKGEFHPVLLAETSFPVQKKLTLKQAKGDFLIGVYEGDHHIEEKTLEPIPKEENAEEDDESEWSDDEPEVVREKLYTLGTKLMELGIKNANGVEIIFNINKDGALRVTARDLKTGNAVKGEL
chain 2: MFSLPTLTSDITVEVNSSATKTPFVRRPVEPVGKFFLQHAQRTLRNHTWS
As for B2, in assay [13], the binding result is reported as “no binding”.
DITVEVNSSATKTPFVRRPVEPVGKFFLQHAQRTLRNHTWS (domain or fragment, UniProt P32527 10-50) [ScZuo1NΔLP (residues 10-50 of ScZuo1)]: the binding entry in assay [14] and in [12] was “binds” in each case.

B3: ScSsz1-Zuo1NΔLP complex (ScSsz1 with ScZuo1NΔLP residues 10-50) (complex, UniProt P38788 1-538; P32527 10-50)
chain 1: MSSPVIGITFGNTSSSIAYINPKNDVDVIANPDGERAIPSALSYVGEDEYHGGQALQQLIRNPKNTIINFRDFIGLPFDKCDVSKCANGAPAVEVDGKVGFVISRGEGKEEKLTVDEVVSRHLNRLKLAAEDYIGSAVKEAVLTVPTNFSEEQKTALKASAAKIGLQIVQFINEPSAALLAHAEQFPFEKDVNVVVADFGGIRSDAAVIAVRNGIFTILATAHDLSLGGDNLDTELVEYFASEFQKKYQANPRKNARSLAKLKANSSITKKTLSNATSATISIDSLADGFDYHASINRMRYELVANKVFAQFSSFVDSVIAKAELDPLDIDAVLLTGGVSFTPKLTTNLEYTLPESVEILGPQNKNASNNPNELAASGAALQARLISDYDADELAEALQPVIVNTPHLKKPIGLIGAKGEFHPVLLAETSFPVQKKLTLKQAKGDFLIGVYEGDHHIEEKTLEPIPKEENAEEDDESEWSDDEPEVVREKLYTLGTKLMELGIKNANGVEIIFNINKDGALRVTARDLKTGNAVKGEL
chain 2: DITVEVNSSATKTPFVRRPVEPVGKFFLQHAQRTLRNHTWS
For the molecule B3, in assay [13], the binding entry is listed as “no binding”.
